# Test results reported in PubChem BioAssay AID493208 (National Center for Advancing Translational Sciences (NCATS), 2011).
# Among all 44,000 compounds or so, about 340 (0.77%) were called active. The inconclusive results got no clear call from the source; some entries with a clear call stand among them for comparison. The call rests on the fitted dose curve; in most records, active means well fitted inhibition curve with a large enough effect; inconclusive means small, poorly fitted or top-dose-only effect; inactive means flat fitted curve, though single readings scatter. Potencies of inconclusive entries are left out as doubtful fits.
# Test: Acumen qHTS Assay for Inhibitors of the mTORC1 Signaling Pathway in MEF (Tsc2-/-, p53-/-) Cells: Sytravon; further: nearly all actives have a fitted effect of over 50% in size;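 on activity change, negative = inhibition: plate controls were DMSO for no effect and rapamycin for full effect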
# Settings: phospho-rpS6 immunofluorescence/PI, 24 h; series mostly up to 38.3 µM; activity change, negative = inhibition: at the top concentration
# Procedure, shortened: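 Tsc2-/-, p53-/- MEFs (empty-vector stable line) in DMEM + 10% FBS were treated with compounds 24 h at 37 degree Celsius, fixed, and immunostained for phospho-rpS6 (Alexa-488) with propidium iodide counterstain. Laser-scanning cytometry gave % positive cells, normalized against 7.5 nM rapamycin and DMSO.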
# Potency means the concentration at half of the fitted maximal effect; tags describe the fitted curve by direction and shape.
Structure (SMILES),"activity change, negative = inhibition",Potency
CCOC(=O)c1oc2c(c1C)-c1nn(Cc3ccc(Cl)cc3)cc1CC2,inactive: -9.17%,
CCn1c(=N)c(C(=O)NCc2ccccc2)cc2c(=O)n3cccc(C)c3nc21,,"inconclusive [falling, partial curve, poor fit]"
CC(C)c1ccc(C2NC(=O)c3n[nH]c(-c4cccs4)c32)cc1 (centres undefined),,"inconclusive [falling, partial curve, poor fit]"
COc1ccc(Cl)cc1S(=O)(=O)NCc1ccc2c(c1)CCN2C(=O)c1cccc(C)c1,,"inconclusive [falling, partial curve, poor fit]"
Cc1ccc(S(=O)(=O)N(CC(=O)Nc2ccc(Cl)cc2Cl)c2ccccc2C)cc1,inactive: 13%,
O=C1CC(c2nc(-c3ccccc3)no2)CN1c1ccccc1 (centres undefined),,"inconclusive [falling, single point]"
CCN(CC)c1ccc(NC(=O)c2cnn(-c3ccccc3)c2-n2cccc2)c(C)c1,,"inconclusive [falling, partial curve, poor fit]"
Cc1nc2cc(-c3ccccc3)nn2c(C)c1CCC(=O)Nc1ccc(F)cc1F,,"inconclusive [falling, single point]"
Cc1nn(CC(=O)NC2CCC(C)CC2)c(=O)c2c1sc1ccccc12 (centres undefined),inactive: 3.8%,
Cc1cc(C)c(Nc2ncnc3c2cnn3C)c(C)c1,,"inconclusive [falling, single point]"
CC(=O)c1ccc(N2CCN(S(=O)(=O)c3ccc(-c4coc(C)n4)cc3)CC2)cc1,,"inconclusive [falling, partial curve, poor fit]"
Cc1cccc(CN2C(=O)c3ccccc3Sc3ccc(C(=O)NC4CCCCC4)cc32)c1,,"inconclusive [falling, single point]"
CCCCOc1ccc(CNC(=O)c2ccc3c(c2)N(C)C(=O)C2CCCCN32)cc1 (centres undefined),,"inconclusive [falling, single point]"
CCc1ccc(NC(=O)C2CCCN2S(=O)(=O)c2ccc3c(c2)CCCC(=O)N3)cc1 (centres undefined),inactive: 0%,
O=C(COc1ccc2oc3c(c2c1)CCCC3)Nc1cccc(Br)c1,,"inconclusive [falling, single point]"
COc1ccc(NC(=O)CSc2nc3ccccc3nc2N2CCOCC2)c(OC)c1,inactive: 12.3%,
Cc1ccsc1CN(C(=O)COc1ccccc1Cl)C1CCS(=O)(=O)C1 (centres undefined),,"inconclusive [falling, single point]"
CCOC(=O)CSc1nc2sc3c(c2c(=O)n1Cc1ccccc1)CC(C(C)C)OC3 (centres undefined),,"inconclusive [falling, single point]"
CCC(C)NC(=O)CCCn1c(=O)c2cccn2c2ccccc21 (centres undefined),,"inconclusive [falling, single point]"
COc1cc(C(=O)Nc2ccc3nc4n(c(=O)c3c2)CCCCC4)cc(OC)c1OC,inactive: 2.02%,
Cc1cc(Nc2ccccc2C)c2cccc(C)c2n1,,"inconclusive [falling, single point]"
COc1ccccc1C(=O)Nc1cccc(OCc2cc(=O)n3ccccc3n2)c1,,"inconclusive [falling, partial curve, poor fit]"

Structure (SMILES),"activity change, negative = inhibition",Potency
COc1cc(NC(=O)CCn2nc(C)cc2C)cc(OC)c1OC,,"inconclusive [falling, full curve, poor fit]"
COc1ccc(-c2cc(C(=O)Nc3ccc4c(c3)OCO4)no2)cc1,,"inconclusive [falling, partial curve, poor fit]"
CSc1cccc(-n2nnc(-c3nsc(NC(=O)c4cccs4)n3)c2C)c1,inactive: -1.1%,
CN(C)c1ccc(C(CNC(=O)c2ccc(C(C)(C)C)cc2)N2CCCC2)cc1 (centres undefined),,"inconclusive [falling, single point]"
Cc1ccc(C)c(NC(=O)c2cnn(-c3ccc(F)cc3F)c2C2CCNCC2)c1,,"inconclusive [falling, partial curve, poor fit]"
COc1ccc(NC(=O)CCS(=O)(=O)c2cc3c(cc2C)NC(=O)CO3)cc1Cl,inactive: 0%,
COC(=O)c1ccc2c(c1)sc(=NC(=O)c1ccc(S(=O)(=O)N3CCCCC3)cc1)n2C,,"inconclusive [falling, partial curve, poor fit]"
Cc1ccc(-c2cnc(C3CC3)o2)cc1S(=O)(=O)Nc1cccc(C#N)c1,inactive: 0%,
Cc1cccc(C)c1NC(=O)CSc1nc(-c2cccs2)cc(C(F)(F)F)n1,,"inconclusive [falling, single point]"
O=C(Cn1c(=O)c2cccn2c2ccc(F)cc21)NCc1cccc(Cl)c1,,"inconclusive [falling, single point]"
Cc1ccccc1NC(=O)Cn1c(=O)n(CCCCCC(=O)NCc2ccc3c(c2)OCO3)c(=O)c2sccc21,,"inconclusive [falling, single point]"
COc1cc(C)c(Cl)cc1S(=O)(=O)NCCc1c(C)[nH]c2ccccc12,,"inconclusive [falling, single point]"
CCOC(=O)c1c(NC(=O)c2cc(CC)on2)sc(C)c1C,inactive: -11.4%,
CCN1CCC(N(Cc2cccc(OC)c2)C(=O)Nc2cccc(C(F)(F)F)c2)CC1,,"inconclusive [falling, single point]"
COCCCNC(=O)c1ccc2c(c1)N=C(C)c1c(C)ccc(C)c1S2,inactive: -9.94%,
CCCCCNC(=O)c1c[nH]c2ccc(S(=O)(=O)N3CCC(C)CC3)cc2c1=O,,"inconclusive [activator, partial curve, poor fit]"
CCC1CN(C(=O)NCc2ccc(C)cc2)c2cc(C)ccc2O1 (centres undefined),,"inconclusive [falling, single point]"
Cc1ccc(C)c(N2CCN(C(=O)c3cc4ccc5cccnc5c4[nH]3)CC2)c1,inactive: -4.06%,
O=C(c1ccc2c(c1)N(Cc1ccc(Cl)cc1)C(=O)c1ccccc1S2(=O)=O)N1CCN(c2ccccn2)CC1,inactive: -6.13%,
CCCCn1c(=N)n(CCOc2ccccc2OC)c2ccccc21,,active: 11.7 µM
Cc1cc(NC(=O)c2ccc(NC(=O)CCS(=O)(=O)c3cccs3)cc2)ccc1Br,,"inconclusive [falling, partial curve, poor fit]"
CC(=O)c1ccc(NC(=O)COCc2cc(-c3ccc(F)cc3)on2)cc1,inactive: -0.969%,

Structure (SMILES),"activity change, negative = inhibition",Potency
Cc1ccc(CCNC(=O)c2c(C)nn(-c3ccc(F)cc3)c2-n2cccc2)cc1,,"inconclusive [falling, partial curve]"
Cc1ccc(NC(=O)c2c(NC(=O)C(F)(F)F)sc3c2CCCCC3)cc1,inactive: 11.4%,
O=C(Cn1c(-c2cccs2)cc2ccccc21)NCCCN1CCN(c2ccccc2F)CC1,inactive: -3.71%,
O=C(CSc1nnc(COc2ccccc2)o1)Nc1cc(C(F)(F)F)ccc1Cl,,"inconclusive [falling, partial curve, poor fit]"
CCOc1cc(S(=O)(=O)NCCc2c(C)[nH]c3ccc(C)cc23)ccc1Br,,"inconclusive [falling, single point]"
COc1ccc(N2CCN(C(=O)CSCc3ccc(C)cc3)CC2)cc1,,"inconclusive [falling, partial curve, poor fit]"
O=C(Nc1cccc(-c2nc3ccccc3o2)c1)c1cccc2c(Cl)cccc12,,"inconclusive [falling, full curve, poor fit]"
Cc1ccc(S(=O)(=O)c2cn(CC(=O)Nc3ccc(Cl)cc3)c3ccc(F)cc3c2=O)cc1C,,"inconclusive [falling, full curve, poor fit]"
CCOC(=O)c1c(NC(=O)c2cc(CC)on2)sc(C(C)=O)c1C,,"inconclusive [falling, partial curve, poor fit]"
COc1ccc(N2CCN(C(=O)C3CCN(c4nc5ccc(C)cc5[nH]4)CC3)CC2)cc1,,"inconclusive [falling, full curve, poor fit]"
COc1ccc(CCN2CCC(CNC(=O)c3cnn(-c4cccc(Cl)c4)c3C3CCN(C(=O)OC(C)(C)C)CC3)CC2)cc1,,"inconclusive [falling, single point]"
O=C(CSc1oc(-c2ccc(F)cc2)nc1S(=O)(=O)c1ccc(Br)cc1)NC1CCCCC1,inactive: 4.26%,
COc1ccc(-c2nc(S(=O)(=O)c3ccc(C)cc3)c(N3CCCCC3)o2)cc1,,"inconclusive [falling, single point]"
Cc1cccc(CN2CCC(CNc3ncnc4onc(-c5ccc(Cl)cc5)c34)CC2)c1,,"inconclusive [falling, single point]"
COc1ccc(NC(=O)C2CCCN(S(=O)(=O)c3cccc4nonc34)C2)cc1Cl (centres undefined),,"inconclusive [falling, single point]"
COc1ccc(-c2nc(SCC(=O)NCc3ccccc3Cl)n[nH]2)cc1,,"inconclusive [falling, partial curve, poor fit]"
Cc1nn(-c2ccc(N3CCCC3)nn2)c(C)c1CCC(=O)N1CCN(c2ccccc2F)CC1,inactive: -3.84%,
CCOc1ccccc1C(=O)Nc1ccc2nc3c(c(Nc4ccc(OC)c(OC)c4)c2c1)CCCC3,,"inconclusive [falling, single point]"
Cc1ccc(S(=O)(=O)NCC(Nc2cccc(Cl)c2)c2ccccc2)cc1 (centres undefined),,"inconclusive [falling, single point]"
CCN(Cc1ccccc1)Cc1c(O)ccc2oc(C)c(C(=O)Nc3ccccc3C)c12,,"inconclusive [falling, partial curve, poor fit]"
